Measurements published in patent publication US20240409609A1, “REVERSIBLE LYSINE COVALENT MODIFIERS OF EGFR AND USES THEREOF” (Terremoto Biosciences, Inc., priority 2021, published 2024).

Legend:
[1] = target: EGFR del746-750 T790M C797S in Ba/F3 cells (Homo sapiens (Human), UniProt P00533, C797S/DEL746-750/T790M); experiment: Ba/F3 pEGFR assay (AlphaLISA p-EGFR Tyr1068); assay type: cell-based; conditions: 2 hrs treatment; read-out: pEGFR Ba/F3 del19/T790M/C797S IC50
Protocol: (§1) Cellular activity was determined using the Ba/F3 system for studying oncogenic mutant kinases (Warmuth 2007). […] Transduced cells were maintained in RPMI 1640 with 10% FBS. EGFR WT transduced cells were grown in media supplemented with EGF. To assay cellular activity of inhibitors, cells were treated with inhibitor from 1000X DMSO stock dilutions and incubated for 2 hrs at 37° C. 5% CO2. Subsequently, p-EGFR (Tyr1068) was quantified using a commercial sandwich immunoassay (PerkinElmer AlphaLISA SureFire assay; ALSU-PEGFR) according to the manufacturer's instructions. […] Curr Opin Oncol 19, 55-60 (2007), which is incorporated herein in its entirety.

[2] = target: EGFR T790M C797S L858R in Ba/F3 cells (Homo sapiens (Human), UniProt P00533, C797S/L858R/T790M); experiment: Ba/F3 pEGFR assay (AlphaLISA p-EGFR Tyr1068); assay type: cell-based; conditions: 2 hrs treatment
Protocol: as §1

[3] = target: EGFR (d746-750) T790M C797S (Homo sapiens (Human), UniProt P00533, C797S/DEL746-750/T790M); experiment: EGFR biochemical assay (AssayQuant chelation-enhanced fluorescence); conditions: read-out: AssayQuant EGFR del19/TM/CS IC50; 30 min preincubation, reaction time 150 min
[4] = target: EGFR L858R/T790M/C797S (Homo sapiens (Human), UniProt P00533, C797S/L858R/T790M); experiment: as above; conditions: read-out: AssayQuant EGFR LR/TM/CS IC50; 30 min preincubation, reaction time 150 min

`CC(C)(O)Cn1/c(=N/C(=O)c2ccnc(Oc3cccc(O)c3C=O)c2)[nH]c2ccc(CN3CCOCC3)cc21` [Compound 76] was tested, and the IC50 [1] was 154 nM, the IC50 [2] was 169 nM and the IC50 [3] was 14.3 nM. It also gave an IC50 [4] of 1.2 nM.
In the case of `CN1CCN(Cc2ccc3[nH]/c(=N\C(=O)c4ccnc(N5CC(Oc6cccc(O)c6C=O)C5)c4)n(CC(C)(C)O)c3c2)CC1` [Compound 104], the IC50 [1] is reported as 5310 nM, the IC50 [2] is reported as 5280 nM and the IC50 [3] is reported as 201 nM. It also gave an IC50 [4] of 92.2 nM.
Compound `CN1CCN(Cc2ccc3[nH]/c(=N\C(=O)c4ccc(Oc5cccc(O)c5C=O)s4)n(CC(C)(C)O)c3c2)CC1` [Compound 73] has an IC50 [1] of 351 nM, an IC50 [2] of 214 nM and an IC50 [3] of 11 nM. It also gave an IC50 [4] of 1.12 nM.
Compound `CN1CCN(Cc2ccc3[nH]/c(=N\C(=O)c4ccnc(OCc5cccc(O)c5C=O)c4)n(CC(C)(C)O)c3c2)CC1` [Compound 112] has an IC50 [1] of over 10000 nM, an IC50 [2] of over 10000 nM and an IC50 [3] of over 1000 nM. The IC50 [4] was over 1000 nM.
With `CN1CCN(Cc2ccc3[nH]/c(=N\C(=O)c4ccnc(N(C)Cc5cccc(O)c5C=O)c4)n(CC(C)(C)O)c3c2)CC1` [Compound 96] the IC50 [1] was 1340 nM, the IC50 [2] was 1150 nM and the IC50 [3] was 77.6 nM. For the same compound, the IC50 [4] was 13 nM.
Work on `O=Cc1c(O)cccc1Oc1cc(C(=O)/N=c2\[nH]c3ccccc3n2[C@H]2CC[C@@H](O)CC2)ccn1` [Compound 122] yielded an IC50 [1] of 442 nM, an IC50 [2] of 790 nM and an IC50 [3] of 3.49 nM. It also gave an IC50 [4] of 1.49 nM.
Compound `CN1CCN(Cc2ccc3[nH]/c(=N\C(=O)c4ccnc(Oc5ccccc5C=O)c4)n(CC(C)(C)O)c3c2)CC1` [Compound 92] has an IC50 [1] of 230 nM, an IC50 [2] of 79.1 nM and an IC50 [3] of 73 nM. For the same compound, the IC50 [4] was 7.23 nM.
`CN1CCN(Cc2ccc3[nH]/c(=N\C(=O)c4ccnc(C#Cc5cccc(NC(=O)C(F)(F)F)c5C=O)c4)n(CC(C)(C)O)c3c2)CC1` [Compound 101] showed an IC50 [1] of 1310 nM, an IC50 [2] of 1480 nM and an IC50 [3] of 30.6 nM. It also gave an IC50 [4] of 18.8 nM.
With `CC(C)(O)Cn1/c(=N/C(=O)c2ccnc(Oc3cccc(O)c3C=O)c2)[nH]c2ccc(CN3CCC(C(C)(C)O)CC3)cc21` [Compound 80] the IC50 [1] was 276 nM, the IC50 [2] was 213 nM and the IC50 [3] was 6.57 nM. For the same compound, the IC50 [4] was 1.47 nM.
`CN1CCN(Cc2ccc3[nH]/c(=N\C(=O)c4ccnc(-c5ccn(-c6cccc(O)c6C=O)n5)c4)n(CC(C)(C)O)c3c2)CC1` [Compound 94] was tested, and the IC50 [1] was 1870 nM, the IC50 [2] was 1750 nM and the IC50 [3] was 39.2 nM. For the same compound, the IC50 [4] was 8.27 nM.
Work on `CN1CCN(Cc2ccc3[nH]/c(=N\C(=O)c4ccc(Oc5cccc(O)c5C=O)cc4)n(CC(C)(C)O)c3c2)CC1` [Compound 105] yielded an IC50 [1] of over 10000 nM, an IC50 [2] of over 10000 nM and an IC50 [3] of 577 nM. The IC50 [4] was 174 nM.
Compound `CC(=O)Nc1cccc(Oc2cc(C(=O)/N=c3\[nH]c4ccc(CN5CCN(C)CC5)cc4n3CC(C)(C)O)ccn2)c1C=O` [Compound 98] has an IC50 [1] of 204 nM, an IC50 [2] of 200 nM and an IC50 [3] of 93.4 nM. The IC50 [4] was 15.4 nM.
For `CC(C)(O)Cn1/c(=N/C(=O)c2ccnc(Oc3cccc(O)c3C=O)c2)[nH]c2ccccc21` [Compound 121], the IC50 [1] was 321 nM, the IC50 [2] was 345 nM and the IC50 [3] was 7.37 nM. The IC50 [4] was 1.45 nM.
`CN1CCN(Cc2ccc3[nH]/c(=N\C(=O)c4cncc(Oc5cccc(O)c5C=O)n4)n(CC(C)(C)O)c3c2)CC1` [Compound 108] gave an IC50 [1] of 435 nM, an IC50 [2] of 421 nM and an IC50 [3] of 87.2 nM. For the same compound, the IC50 [4] was 8.05 nM.
For `CN1CCN(C2CCN(c3ccc4c(c3)[nH]/c(=N\C(=O)c3ccnc(Oc5cccc(O)c5C=O)c3)n4CC(C)(C)O)CC2)CC1` [Compound 91], the IC50 [1] was 1200 nM, the IC50 [2] was 859 nM and the IC50 [3] was 23.5 nM. The IC50 [4] was 6.53 nM.
`CC(=O)Nc1cccc(-c2cnn(-c3cc(C(=O)/N=c4\[nH]c5ccc(CN6CCN(C)CC6)cc5n4CC(C)(C)O)ccn3)c2)c1C=O` [Compound 95] gave an IC50 [1] of 988 nM, an IC50 [2] of 324 nM and an IC50 [3] of 465 nM. For the same compound, the IC50 [4] was 9.55 nM.
`CC(C)(O)Cn1/c(=N/C(=O)c2ccnc(C#Cc3cccc(O)c3C=O)c2)[nH]c2ccc(CN3CCOCC3)cc21` [Compound 78] was tested, and the IC50 [1] was 1440 nM, the IC50 [2] was 2060 nM and the IC50 [3] was 1.93 nM. It also gave an IC50 [4] of 1.34 nM.
`CN1CCN(Cc2ccc3[nH]/c(=N\C(=O)c4ccnc(-c5cnn(-c6cccc(O)c6C=O)c5)c4)n(CC(C)(C)O)c3c2)CC1` [Compound 88] showed an IC50 [1] of 89.7 nM, an IC50 [2] of 642 nM and an IC50 [3] of 7.74 nM. It also gave an IC50 [4] of 5.64 nM.
